From PubChem BioAssay AID504466 (National Center for Advancing Translational Sciences (NCATS), 2011)
Screen size: about 330,000 compounds; about 4,200 (1.3%) were called active. Inconclusive results, whose numbers are uncertain, are shown with a selection of clear calls. Calls follow the shape of the dose curve; as a rule, active = well fitted activation curve with a large enough effect; inconclusive = small, poorly fitted or top-dose-only effect; inactive = no such curve, though single readings can be large or run the other way. Potencies beside an inconclusive call are fits to weak or partial responses and may not hold up.

Assay: qHTS screen for small molecules that induce genotoxicity in human embryonic kidney (HEK293T) cells expressing luciferase-tagged ELG1; also: nearly all actives have a fitted effect of over 60% in size; as to activity change, positive = activation: % of control where 0% means no effect
Conditions: HEK293T ELG1-luciferase reporter, luminescence, 16 h; series mostly up to 46 µM; activity change, positive = activation: at the top concentration
Summary of the method: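 Screening used a luciferase reporter fused to human ELG1 in HEK293T cells. Luminescence was read on a CCD plate imager after 16 hr exposure and 30 min ONE-Glo incubation.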
Potency is read from the fitted curve at half-maximal effect; tags tell the direction and shape of the fitted curve.

| Structure (SMILES) | activity change, positive = activation | Potency |
| --- | --- | --- |
| Cc1nc2scc(C)n2c(=O)c1S(=O)(=O)N1CCN(c2cccc(C(F)(F)F)c2)CC1 | inactive: -2.87% | – |
| O=C(CCCOc1ccccc1)Nc1ccc(Cl)cn1 | – | inconclusive: 25.9 µM [activator, single point] |
| COC(=O)c1c(C)[nH]c(C(=O)/C=C/c2ccccc2)c1C | – | active: 11.6 µM |
| O=C(N1CCN(S(=O)(=O)c2ccc(Cl)cc2)CC1)n1ccnc1 | inactive: -0.37% | – |
| O=C(NCCOc1ccccc1F)c1cc(F)c(F)cc1Cl | – | inconclusive: 3.66 µM [activator, full curve] |
| O=C(NC1CCN(Cc2ccccc2)CC1)c1ccc(Cn2c(=S)[nH]c3ccc(N4CCOCC4)cc3c2=O)cc1 | – | inconclusive: 29.1 µM [activator, partial curve, poor fit] |
| Cc1cccc(Nc2ncc3c(n2)CC(C)CC3=O)c1 (stereo not drawn) | – | active: 4.61 µM |
| O=c1c(-c2ccc(O)cc2)coc2cc(OC3OC(CO)C(O)C(O)C3O)ccc12 (stereo not drawn) | – | active: 16.4 µM |
| CCN(c1ccccc1)S(=O)(=O)c1ccc(C(=O)N(CCCN(C)C)c2nc3cc4c(cc3s2)OCO4)cc1 | – | inconclusive: 29.1 µM [activator, single point] |
| COc1cccc(/C(C)=N/N=C(\C)c2cccc(OC)c2)c1 | – | inconclusive: 10.3 µM [activator, single point] |
| C=CCOc1ccc(/C=C/C(=O)OCC(=O)N(C)CC(=O)Nc2ccccc2Cl)cc1 | – | inconclusive: 29.1 µM [activator, single point] |
| O=c1cc(-c2ccc3c(c2)OCO3)oc2ccccc12 | – | active: 9.2 µM |
| COc1ccc(-c2noc(CCC(=O)Nc3cc(Cl)c(OC)cc3OC)n2)cc1 | – | inconclusive: 20.6 µM [activator, partial curve] |
| Cc1ccc(OC(=O)COc2ccccc2)c(-n2nc3ccccc3n2)c1 | – | active: 7.31 µM |
| CC(C)(C)C1CCC(=NNC(=O)c2ccco2)CC1 (stereo not drawn) | – | inconclusive: 32.6 µM [activator, partial curve, poor fit] |
| COCC(=O)OC/C(O)=C(\C#N)c1nc2ccccc2[nH]1 | – | inconclusive: 29.1 µM [activator, single point] |
| O=C(Nc1ccccc1)C1CC(=O)N(c2ccc3c4c(cccc24)CC3)C1 (stereo not drawn) | inactive: -2.23% | – |
| Nc1c(C(=O)NC2CC2)c2nc3ccccc3nc2n1-c1ccc2c(c1)OCO2 | inactive: -1.27% | – |
| COc1ccccc1OCc1cc(-c2ccccc2)no1 | – | inconclusive: 11.6 µM [activator, partial curve] |
| O=C(Nc1ccc(Nc2ccccc2)cc1)Nc1ccccc1Cl | – | inconclusive: 14.6 µM [activator, partial curve] |
| COc1ccc(C(=O)COC(=O)c2ccco2)cc1 | – | inconclusive: 14.6 µM [activator, partial curve] |
| CCCc1c(-c2ccc(O)cc2)nn(-c2ccc(O)cc2)c1-c1ccc(O)cc1 | inactive: -7.03% | – |
| Cc1cc(NC(=O)c2cccc(Cl)c2)n[nH]1 | – | inconclusive: 10.3 µM [activator, partial curve, poor fit] |
| Cn1cc(Cl)cc(C(=O)Nc2ccccc2)c1=O | – | inconclusive: 14.6 µM [activator, partial curve] |
| O=C(Nc1ccccc1N1CCN(c2ccc(F)cc2)CC1)C12CC3CC(CC(C3)C1)C2 | inactive: -1.56% | – |

| Structure (SMILES) | activity change, positive = activation | Potency |
| --- | --- | --- |
| CCOC(=O)CC(=O)Nc1nc2ccccc2s1 | – | inconclusive: 29.1 µM [activator, partial curve, poor fit] |
| Cc1ccc(NC(=O)c2ccc3nc[nH]c3c2)cc1C | – | inconclusive: 8.2 µM [activator, partial curve] |
| CS(=O)(=O)c1ccc2nc(NC(=O)Nc3ccccc3F)sc2c1 | – | inconclusive: 0.651 µM [activator, partial curve, poor fit] |
| COc1cc(-c2cc(C(=O)Nc3cc(S(=O)(=O)N4CCOCC4)ccc3O)c3ccccc3n2)cc(OC)c1OC | inactive: -6.26% | – |
| Cc1ccc(NC(=O)c2nc3nccc(C)n3n2)c(C)c1 | – | inconclusive: 18.3 µM [activator, partial curve, poor fit] |
| CCC(=O)N1N=C(c2ccc(NS(C)(=O)=O)cc2)CC1c1ccc(N(C)C)cc1 (stereo not drawn) | – | inconclusive: 18.3 µM [activator, partial curve] |
| COc1ccc(/C=C/C(=O)Nc2ccccc2C(=O)O)cc1OC | – | inconclusive: 6.51 µM [activator, full curve, poor fit] |
| CCCc1cc(-c2ccc(O)c(OCC)c2)c(C#N)c(N)n1 | – | inconclusive: 32.6 µM [activator, partial curve, poor fit] |
| COc1cccc(OC)c1C(=O)NNC(=O)c1cccc(COc2ccc3c(c2)CCC3)c1 | – | active: 0.366 µM |
| CC(=O)Nc1nnc(SCC(=O)NC2CCCC2)s1 | inactive: -9.52% | – |
| Cc1c(/C(O)=C2/C(=O)C(=O)N(Cc3cccnc3)C2c2ccccn2)cnn1-c1ccccc1 (stereo not drawn) | – | inconclusive: 20.6 µM [activator, single point] |
| O=Cc1ccccc1OCCOc1ccccc1C=O | – | inconclusive: 23.1 µM [activator, partial curve, poor fit] |
| COc1ccc2nc(SCc3ccccc3C)nc(C)c2c1 | – | inconclusive: 25.9 µM [activator, partial curve, poor fit] |
| COC(=O)c1c(NC(=O)c2cccc([N+](=O)[O-])c2)sc(C(N)=O)c1C | – | inconclusive: 23.1 µM [activator, partial curve, poor fit] |
| Cc1ccc(OCC(=O)Nc2ccc(F)cc2)cc1C | – | inconclusive: 9.2 µM [activator, partial curve, poor fit] |
| Cc1cc(C)c(C(=O)COC(=O)c2ccc([N+](=O)[O-])o2)cc1C | inactive: -2.63% | – |
| CCCc1cc(=O)oc2c(C)c(OCC(=O)Nc3ccccn3)ccc12 | – | active: 5.17 µM |
| COc1cccc(OCc2cc(C(=O)NC3CCOCC3)no2)c1 | – | inconclusive: 14.6 µM [activator, single point] |
| CCN(CC(=O)Nc1ccc(NC(C)=O)cc1)C(=O)c1ccccc1SCc1c(C)noc1C | inactive: 4.07% | – |
| O=C(Nc1nc2ccccc2[nH]1)c1ccc(OC(F)F)cc1 | – | active: 1.46 µM |
| Cc1ccnc(Nc2nc(-c3ccc(O)cc3)cs2)c1 | – | inconclusive: 13 µM [activator, single point] |
| CCC(=O)Nc1ccc(NC(=O)c2ccccc2Cl)nc1 | – | inconclusive: 18.4 µM [activator, partial curve] |
| CCNc1nc(NCC)n2c(SCC(=O)Nc3ccc(C(F)(F)F)cc3[N+](=O)[O-])nnc2n1 | inactive: 1.02% | – |
| Cc1cc(N=Nc2ccc(Cl)cc2)cc(CN2CCOCC2)c1O | inactive: -2.99% | – |
| COc1cccc(NC(=O)CN(C)C(=O)c2sc3cc(Cl)ccc3c2Cl)c1 | inactive: -2.95% | – |

| Structure (SMILES) | activity change, positive = activation | Potency |
| --- | --- | --- |
| Cc1ccc(C(=O)Cc2nc3ccccc3[nH]2)cc1 | – | active: 3.55 µM |
| Cc1cccc(NC(=O)CCCc2ccccc2)c1 | – | inconclusive: 13 µM [activator, partial curve] |
| O=C(NC(=S)NC1CCCCC1)c1ccccc1 | – | inconclusive: 10.3 µM [activator, partial curve] |
| Cc1cc(NC(=O)c2ccc(NC(=O)C3CCCO3)cc2)ccc1Br (stereo not drawn) | – | inconclusive: 20.6 µM [activator, partial curve, poor fit] |
| Cc1cccc(-n2c(SCC(=O)N3CCC(C(=O)O)CC3)nc3ccccc3c2=O)c1C | inactive: 5.98% | – |
| CC(=O)N/C(=C/c1ccc2c(c1)OCO2)C(=O)NCCO | inactive: 2.74% | – |
| CCCc1ccc(OC(=O)c2ccc(O)cc2Cl)cc1 | – | inconclusive: 2.06 µM [activator, partial curve] |
| CCc1ccc(OCCn2cccn2)cc1 | – | inconclusive: 20.6 µM [activator, partial curve, poor fit] |
| COc1ccc(C(C(=O)NC2CCCC2)N(C(=O)c2snc(-c3ccc(F)cc3)c2N)c2cccc(F)c2)cc1 (stereo not drawn) | – | inconclusive: 16.4 µM [activator, single point] |
| CCc1nc2cc3sc(CC)nc3cc2s1 | – | active: 9.2 µM |
| Cc1cc(C)c2sc(NC(=O)C3=COCCO3)nc2c1 | – | inconclusive: 6.51 µM [activator, partial curve] |
| Cc1ccc2nc(-c3cccc(N)c3)oc2c1 | – | active: 1.64 µM |
| O=C(NCCCn1ccnc1)c1cccc(Br)c1 | inactive: -1.08% | – |
| Cc1ccc(-c2nc(Nc3cccc(C)c3)sc2CC(=O)O)cc1 | – | inconclusive: 16.4 µM [activator, partial curve, poor fit] |
| O=C1c2ccccc2NC(c2cn[nH]c2-c2ccc(Cl)cc2)N1O (stereo not drawn) | – | inconclusive: 29.1 µM [activator, partial curve, poor fit] |
| COC(=O)c1ccc(NC(=O)c2ccccc2NS(C)(=O)=O)cc1 | inactive: -3.62% | – |
| COc1ccc(N2CCN(C(=O)Cn3c(=O)[nH]c4ccccc4c3=O)CC2)cc1 | inactive: -4.84% | – |
| O=C(Nc1ccc(NC(=O)c2cccnc2Cl)cc1)c1cccc(Cl)c1 | inactive: 14.7% | – |
| Cc1c(C(=O)NCc2ccco2)sc2nc(-c3ccccc3)cn12 | – | inconclusive: 4.11 µM [activator, full curve] |
| Cn1c(SCc2ccc(F)cc2)nnc1-c1ccccn1 | – | inconclusive: 18.4 µM [activator, partial curve] |
| Cc1cc2ncc(-c3ccc(Cl)cc3)cn2n1 | – | inconclusive: 3.26 µM [activator, partial curve] |
| O=C(N[C@H]1CC1c1ccccc1)c1ccc([N+](=O)[O-])cc1 (stereo partly drawn) | – | inconclusive: 3.26 µM [activator, full curve] |
| Cc1ccc(C(=O)OCc2nnc(-c3ccccc3)o2)cc1S(=O)(=O)N1CCOCC1 | inactive: 18.9% | – |
